# From the supplement of paper PMC8728848
# The other results are listed elsewhere or left out.
# B1: DC-ASGPR-short (Homo sapiens) (protein)
# chain: MTRTYENFQYLENKVKVQGFKNGPLPLQSLLQRLRSGPCHLLLSLGLGLLLLVIICVVGFQNSKFQRDLVTLRTDFSNFTSNTVAEIQALTSQGSSLEETIASLKAEVEGFKQERQAVHSEMLLRVQQLVQDLKKLTCQVATLNNNASTEGTCCPVNWVEHQDSCYWFSHSGMSWAEAEKYCQLKNAHLVVINSREEQNFVQKYLGSAYTWMGLSDPEGAWKWVDGTDYATGFQNWKPGQPDDWQGHGLGGGEDCAHFHPDGRWNDDVCQRPYHWVCEAGLGQTSQESH
# Columns and labels:
# Experiment in all cases: glycan array binding signal (z-score within array); higher = stronger binding
# Details in all cases: glycan notation: IUPAC condensed, linker removed
# [1] = molecular target: Gal(b1-4)GlcNAc(b1-3)Gal(b1-4)GlcNAc(b1-3)Gal(b1-4)GlcNAc(b1-3)Gal(b1-4)GlcNAc(b1-2)Man(a1-3)[Gal(b1-4)GlcNAc(b1-3)Gal(b1-4)GlcNAc(b1-3)Gal(b1-4)GlcNAc(b1-3)Gal(b1-4)GlcNAc(b1-2)Man(a1-6)]Man(b1-4)GlcNAc(b1-4)GlcNAc
# Procedure, shortened: (§1)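 The binding signal is a Z-score computed within each array and averaged over linkers. Arrays of the same protein sequence at different concentrations or buffers were also averaged together. Data originate from 3228 arrays in the Consortium for Functional Glycomics database, kept only where the protein sequence was available.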
# [2] = molecular target: Gal(b1-4)GlcNAc(b1-3)Gal(b1-4)GlcNAc(b1-3)Gal(b1-4)GlcNAc(b1-3)Gal(b1-4)GlcNAc(b1-2)Man(a1-3)[Gal(b1-4)GlcNAc(b1-3)Gal(b1-4)GlcNAc(b1-3)Gal(b1-4)GlcNAc(b1-3)Gal(b1-4)GlcNAc(b1-2)Man(a1-6)]Man(b1-4)GlcNAc(b1-4)[Fuc(a1-6)]GlcNAc
# Procedure, shortened: as §1
# [3] = molecular target: Gal(b1-4)GlcNAc(b1-3)Gal(b1-4)GlcNAc(b1-3)Gal(b1-4)GlcNAc(b1-3)Gal(b1-4)GlcNAc(b1-2)[Gal(b1-4)GlcNAc(b1-3)Gal(b1-4)GlcNAc(b1-3)Gal(b1-4)GlcNAc(b1-3)Gal(b1-4)GlcNAc(b1-6)]Man(a1-6)[Gal(b1-4)GlcNAc(b1-3)Gal(b1-4)GlcNAc(b1-3)Gal(b1-4)GlcNAc(b1-3)Gal(b1-4)GlcNAc(b1-2)Man(a1-3)]Man(b1-4)GlcNAc(b1-4)[Fuc(a1-6)]GlcNAc
# Procedure, shortened: as §1
# [4] = molecular target: Gal(b1-4)GlcNAc(b1-3)Gal(b1-4)GlcNAc(b1-3)Gal(b1-4)GlcNAc(b1-3)Gal(b1-4)GlcNAc(b1-3)Gal(b1-4)GlcNAc(b1-2)Man(a1-3)[Gal(b1-4)GlcNAc(b1-3)Gal(b1-4)GlcNAc(b1-3)Gal(b1-4)GlcNAc(b1-3)Gal(b1-4)GlcNAc(b1-3)Gal(b1-4)GlcNAc(b1-2)Man(a1-6)]Man(b1-4)GlcNAc(b1-4)GlcNAc
# Procedure, shortened: as §1
# [5] = molecular target: Gal(b1-4)GlcNAc(b1-3)Gal(b1-4)GlcNAc(b1-3)Gal(b1-4)GlcNAc(b1-3)Gal(b1-4)GlcNAc(b1-3)Gal(b1-4)GlcNAc(b1-2)Man(a1-3)[Gal(b1-4)GlcNAc(b1-3)Gal(b1-4)GlcNAc(b1-3)Gal(b1-4)GlcNAc(b1-3)Gal(b1-4)GlcNAc(b1-3)Gal(b1-4)GlcNAc(b1-2)Man(a1-6)]Man(b1-4)GlcNAc(b1-4)[Fuc(a1-6)]GlcNAc
# Procedure, shortened: as §1
# [6] = molecular target: Gal(b1-4)GlcNAc(b1-3)Gal(b1-4)GlcNAc(b1-3)Gal(b1-4)GlcNAc(b1-3)Gal(b1-4)GlcNAc(b1-3)Gal(b1-4)GlcNAc(b1-2)[Gal(b1-4)GlcNAc(b1-3)Gal(b1-4)GlcNAc(b1-3)Gal(b1-4)GlcNAc(b1-3)Gal(b1-4)GlcNAc(b1-3)Gal(b1-4)GlcNAc(b1-6)]Man(a1-6)[Gal(b1-4)GlcNAc(b1-3)Gal(b1-4)GlcNAc(b1-3)Gal(b1-4)GlcNAc(b1-3)Gal(b1-4)GlcNAc(b1-3)Gal(b1-4)GlcNAc(b1-2)Man(a1-3)]Man(b1-4)GlcNAc(b1-4)[Fuc(a1-6)]GlcNAc
# Procedure, shortened: as §1
# [7] = molecular target: Gal(b1-4)GlcNAc(b1-3)Gal(b1-4)GlcNAc(b1-3)Gal(b1-4)GlcNAc(b1-3)Gal(b1-4)GlcNAc(b1-3)Gal(b1-4)GlcNAc(b1-3)Gal(b1-4)GlcNAc(b1-2)Man(a1-3)[Gal(b1-4)GlcNAc(b1-3)Gal(b1-4)GlcNAc(b1-3)Gal(b1-4)GlcNAc(b1-3)Gal(b1-4)GlcNAc(b1-3)Gal(b1-4)GlcNAc(b1-3)Gal(b1-4)GlcNAc(b1-2)Man(a1-6)]Man(b1-4)GlcNAc(b1-4)GlcNAc
# Procedure, shortened: as §1
# [8] = molecular target: Gal(b1-4)GlcNAc(b1-3)Gal(b1-4)GlcNAc(b1-3)GalNAc
# Procedure, shortened: as §1
# [9] = molecular target: Gal(b1-4)GlcNAc(b1-3)Gal(b1-4)GlcNAc(b1-3)[Gal(b1-4)GlcNAc(b1-3)Gal(b1-4)GlcNAc(b1-6)]GalNAc
# Procedure, shortened: as §1
# [10] = molecular target: Gal(b1-4)GlcNAc(b1-3)Gal(b1-4)GlcNAc(b1-6)[Gal(b1-3)]GalNAc
# Procedure, shortened: as §1
# [11] = molecular target: Gal(b1-4)GlcNAc(b1-3)Gal(b1-4)[Fuc(a1-3)]GlcNAc(b1-3)Gal(b1-4)[Fuc(a1-3)]GlcNAc
# Procedure, shortened: as §1
# [12] = molecular target: Gal(b1-4)GlcNAc(b1-3)GalNAc
# Procedure, shortened: as §1
# [13] = molecular target: Gal(b1-4)GlcNAc(b1-3)[Fuc(a1-3)GlcNAc(b1-6)]Gal(b1-4)Glc
# Procedure, shortened: as §1
# [14] = molecular target: Gal(b1-4)GlcNAc(b1-3)[Gal(b1-4)GlcNAc(b1-6)]Gal(b1-4)GlcNAc
# Procedure, shortened: as §1
# [15] = molecular target: Gal(b1-4)GlcNAc(b1-3)[GlcNAc(b1-6)]Gal(b1-4)GlcNAc
# Procedure, shortened: as §1
# [16] = molecular target: Gal(b1-4)GlcNAc(b1-6)Gal(b1-4)GlcNAc
# Procedure, shortened: as §1
# [17] = molecular target: Gal(b1-4)GlcNAc(b1-6)GalNAc
# Procedure, shortened: as §1
# [18] = molecular target: Gal(b1-4)GlcNAc(b1-6)[Gal(b1-3)]GalNAc
# Procedure, shortened: as §1
# [19] = molecular target: Gal(b1-4)GlcNAc(b1-6)[Gal(b1-4)GlcNAc(b1-3)]GalNAc
# Procedure, shortened: as §1
# Gal(b1-4)GlcNAc6P = molecular target: Gal(b1-4)GlcNAc6P
# Procedure, shortened: as §1
# Gal(b1-6)Gal = molecular target: Gal(b1-6)Gal
# Procedure, shortened: as §1
# Gal3S(b1-3)GalNAc = molecular target: Gal3S(b1-3)GalNAc
# Procedure, shortened: as §1
# Gal3S(b1-3)GlcNAc = molecular target: Gal3S(b1-3)GlcNAc
# Procedure, shortened: as §1
# [20] = molecular target: Gal3S(b1-3)[Fuc(a1-4)]GlcNAc
# Procedure, shortened: as §1
# Gal3S(b1-4)Glc = molecular target: Gal3S(b1-4)Glc
# Procedure, shortened: as §1
# Gal3S(b1-4)Glc6S = molecular target: Gal3S(b1-4)Glc6S
# Procedure, shortened: as §1
# Gal3S(b1-4)GlcNAc = molecular target: Gal3S(b1-4)GlcNAc
# Procedure, shortened: as §1
# [21] = molecular target: Gal3S(b1-4)[Fuc(a1-3)]Glc6S
# Procedure, shortened: as §1
# [22] = molecular target: Gal3S(b1-4)[Fuc(a1-3)]GlcNAc
# Procedure, shortened: as §1
# [23] = molecular target: Gal3S(b1-4)[Fuc(a1-3)]GlcNAc6S
# Procedure, shortened: as §1
# Gal3S4S(b1-4)GlcNAc = molecular target: Gal3S4S(b1-4)GlcNAc
# Procedure, shortened: as §1
# Gal3S6S(b1-4)GlcNAc = molecular target: Gal3S6S(b1-4)GlcNAc
# Procedure, shortened: as §1
# Gal3S6S(b1-4)GlcNAc6S = molecular target: Gal3S6S(b1-4)GlcNAc6S
# Procedure, shortened: as §1
# Gal4S(b1-4)GlcNAc = molecular target: Gal4S(b1-4)GlcNAc
# Procedure, shortened: as §1
# Gal4S6S(b1-4)GlcNAc = molecular target: Gal4S6S(b1-4)GlcNAc
# Procedure, shortened: as §1
# Gal6P(b1-4)GlcNAc = molecular target: Gal6P(b1-4)GlcNAc
# Procedure, shortened: as §1
# Gal6S(b1-3)GlcNAc = molecular target: Gal6S(b1-3)GlcNAc
# Procedure, shortened: as §1
# Gal6S(b1-3)GlcNAc6S = molecular target: Gal6S(b1-3)GlcNAc6S
# Procedure, shortened: as §1
binder,measurement,setting,value
B1,glycan array binding signal (z-score),[1],-0.207
same,glycan array binding signal (z-score),[2],-0.235
same,glycan array binding signal (z-score),[3],-0.195
same,glycan array binding signal (z-score),[4],-0.155
same,glycan array binding signal (z-score),[5],-0.17
same,glycan array binding signal (z-score),[6],-0.147
same,glycan array binding signal (z-score),[7],-0.166
same,glycan array binding signal (z-score),[8],-0.277
same,glycan array binding signal (z-score),[9],-0.26
same,glycan array binding signal (z-score),[10],-0.258
same,glycan array binding signal (z-score),[11],-0.258
same,glycan array binding signal (z-score),[12],-0.281
same,glycan array binding signal (z-score),[13],-0.274
same,glycan array binding signal (z-score),[14],-0.282
same,glycan array binding signal (z-score),[15],-0.289
same,glycan array binding signal (z-score),[16],-0.284
same,glycan array binding signal (z-score),[17],3.52
same,glycan array binding signal (z-score),[18],0.112
same,glycan array binding signal (z-score),[19],-0.261
same,glycan array binding signal (z-score),Gal(b1-4)GlcNAc6P,-0.284
same,glycan array binding signal (z-score),Gal(b1-6)Gal,-0.275
same,glycan array binding signal (z-score),Gal3S(b1-3)GalNAc,-0.265
same,glycan array binding signal (z-score),Gal3S(b1-3)GlcNAc,-0.745
same,glycan array binding signal (z-score),[20],-0.259
same,glycan array binding signal (z-score),Gal3S(b1-4)Glc,-0.269
same,glycan array binding signal (z-score),Gal3S(b1-4)Glc6S,-0.268
same,glycan array binding signal (z-score),Gal3S(b1-4)GlcNAc,-0.271
same,glycan array binding signal (z-score),[21],-0.258
same,glycan array binding signal (z-score),[22],-0.267
same,glycan array binding signal (z-score),[23],-0.26
same,glycan array binding signal (z-score),Gal3S4S(b1-4)GlcNAc,-0.279
same,glycan array binding signal (z-score),Gal3S6S(b1-4)GlcNAc,-0.266
same,glycan array binding signal (z-score),Gal3S6S(b1-4)GlcNAc6S,-0.276
same,glycan array binding signal (z-score),Gal4S(b1-4)GlcNAc,-0.289
same,glycan array binding signal (z-score),Gal4S6S(b1-4)GlcNAc,-0.27
same,glycan array binding signal (z-score),Gal6P(b1-4)GlcNAc,-0.27
same,glycan array binding signal (z-score),Gal6S(b1-3)GlcNAc,-0.237
same,glycan array binding signal (z-score),Gal6S(b1-3)GlcNAc6S,-0.289
